Measured values: PubChem BioAssay AID588453 (National Center for Advancing Translational Sciences (NCATS), 2011)
Values joined by “and” are separate entries in the source; they are usually repeats but may differ in a detail not shown here. Identical values can stand only once. Hit rate of the full screen: of about 390,000 compounds, about 4,000 (1%) were called active. This list was built around the results that the source calls inconclusive (neither active nor inactive); the mix of calls is not that of the screen. Calls come from the whole dose curve; as a rule, active = well fitted inhibition curve with a large enough effect; inconclusive = small, poorly fitted or top-dose-only effect; inactive = no such curve, though single readings can be large or run the other way. A potency beside an inconclusive call is a rough fit, not a confirmed value.
% is set by controls: 0 for no effect and ±100 for the full control effect; potency is the fitted concentration of half-maximal effect; tags give direction and shape of the fitted curve.
Note: nearly all actives have a fitted effect of over 65% in size.

These compounds were tested against Thioredoxin reductase 1, cytoplasmic (Rattus norvegicus) (UniProt O89049) (assay: qHTS Assay for Inhibitors of Mammalian Selenoprotein Thioredoxin Reductase 1 (TrxR1): qHTS). Conditions: recombinant rTrxR1, NADPH fluorescence consumption, selenite substrate; series mostly up to 114 µM.
UniProt O89049, sequence (O89049 whole entry, looked up): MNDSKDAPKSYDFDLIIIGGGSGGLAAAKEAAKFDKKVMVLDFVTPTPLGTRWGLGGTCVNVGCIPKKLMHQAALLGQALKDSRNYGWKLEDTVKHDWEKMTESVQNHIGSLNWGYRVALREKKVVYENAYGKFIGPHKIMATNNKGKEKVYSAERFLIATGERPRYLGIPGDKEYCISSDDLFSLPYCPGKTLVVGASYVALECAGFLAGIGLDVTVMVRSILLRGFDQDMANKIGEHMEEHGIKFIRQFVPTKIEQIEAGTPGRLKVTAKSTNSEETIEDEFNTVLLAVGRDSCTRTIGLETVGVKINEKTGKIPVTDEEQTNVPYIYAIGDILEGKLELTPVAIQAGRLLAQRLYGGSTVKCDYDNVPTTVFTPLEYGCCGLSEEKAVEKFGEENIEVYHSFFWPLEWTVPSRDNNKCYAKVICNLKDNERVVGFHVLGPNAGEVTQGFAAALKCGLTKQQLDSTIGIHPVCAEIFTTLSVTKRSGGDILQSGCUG
Summary of the method: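 Rat TrxR1 (90 nM in the dispensed reagent) was pre-reduced with 400 uM NADPH for 5 min at room temperature, then incubated with compound for 15 min. After 400 uM selenite was added, NADPH fluorescence (Ex 340/Em 450 nm) was followed for 8 min.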
In the case of Cc1ccc(N2C(=O)C3C4C=CC(CNC(=S)Nc5cccc(Cl)c5)(O4)C3C2=O)cc1 (centres undefined), the Potency is reported as active: 7.94 µM.
With CN1CCN(/N=C/c2nc(-c3ccccc3)n3ccccc23)CC1 the Potency was inconclusive: 3.98 µM [inhibitor, full curve, poor fit].
For COc1cc(OC)c(OC)cc1CNC(=O)c1ccc(COc2ccccc2)cc1, the Potency was “inactive”.
O=C(NC(=S)Nc1cccc(C(F)(F)F)c1)c1ccc2nonc2c1 was tested, and the Potency was inconclusive: 28.2 µM [inhibitor, single point].
O=C(NC(=S)Nc1cccc([N+](=O)[O-])c1)c1ccccc1 was tested, and the Potency was inconclusive: 31.6 µM [inhibitor, partial curve].
In the case of CCCCOC(=O)c1nnc(-c2ccccc2)o1, the Potency is reported as “inactive”.
In the case of Cc1ccccc1NC(=O)c1nn(C)c2c1CS(=O)(=O)c1ccccc1-2, the Potency is reported as inconclusive: 22.4 µM [inhibitor, single point].
In the case of Cc1ccc(NC(=O)Cn2c(CCC(=O)O)ccc2-c2cccs2)cc1, the Potency is reported as inconclusive: 31.6 µM [inhibitor, partial curve] and inconclusive: 44.7 µM [inhibitor, partial curve, poor fit].
In the case of Cc1cc(C)c2c(=O)cc(C(=O)Nc3ccc(S(=O)(=O)Nc4nc(C)cc(C)n4)cc3)oc2c1, the Potency is reported as “inactive”.
For CC(=O)C1=C(O)C(=O)N(Cc2ccco2)C1c1ccc2c(c1)OCO2 (centres undefined), the Potency was inconclusive: 31.6 µM [inhibitor, single point].
With O=C(O)CCc1ccc(-c2cccs2)n1-c1ccc(C(=O)O)cc1 the Potency was active: 70.8 µM.
N#C/C(C(=O)N1CCOCC1)=C1/SC(Cc2ccccc2Cl)C(=O)N1c1ccccc1 (centres undefined) was tested, and the Potency was inconclusive: 39.8 µM [inhibitor, single point].
For CN(C)c1ccc(-c2ccc3ccccc3n2)cc1, the Potency was inconclusive: 89.1 µM [inhibitor, single point].
Cc1ccc(NC(=S)NC(=O)C2CC2)cc1Cl was tested, and the Potency was inconclusive: 50.1 µM [inhibitor, partial curve].
In the case of O=C(NC1=C(Nc2ccc(Cl)cc2)C(=O)c2ccccc2C1=O)c1ccccc1, the Potency is reported as inconclusive: 39.8 µM [inhibitor, partial curve].
In the case of CCOC(=O)N/N=C/c1ccc(N(CC)CC)cc1O, the Potency is reported as “inactive”.
For COc1ccc(Cn2nnnc2C(c2ccncc2)N2CCOCC2)cc1 (centres undefined), the Potency was inconclusive: 28.2 µM [inhibitor, single point].
For CC1(C(=O)N/N=C/c2cc3c(cc2Br)OCO3)CC1(Br)Br (centres undefined), the Potency was inconclusive: 79.4 µM [inhibitor, single point].
With CN(C)CCCCSC(=N)N the Potency was inconclusive: 44.7 µM [inhibitor, partial curve, poor fit].
In the case of Cc1ccc(-n2c(CCC(=O)O)ccc2-c2cccs2)cc1, the Potency is reported as inconclusive: 56.2 µM [inhibitor, partial curve, poor fit].
Cc1cc(=O)oc2c3c(cc(OCC(=O)N[C@@H](Cc4ccccc4)C(=O)O)c12)OC(C)(C)CC3 was tested, and the Potency was inconclusive: 56.2 µM [inhibitor, partial curve, poor fit].
In the case of CN(C)c1ccc(C(CNS(=O)(=O)c2ccc(Cl)cc2)N2CCCC2)cc1 (centres undefined), the Potency is reported as “inactive”.
COc1cc(NC(=O)c2cccs2)c(C(=O)OCC(=O)NCc2ccco2)cc1OC was tested, and the Potency was inconclusive: 11.2 µM [inhibitor, partial curve].
In the case of Cc1cccc(/C=N/NC(=O)c2cc(C3CC3)nc3ccccc23)n1, the Potency is reported as “inactive”.
In the case of O=C(Nc1nc2ccc(F)cc2s1)C1CCN(S(=O)(=O)c2cc([N+](=O)[O-])ccc2Cl)CC1, the Potency is reported as inconclusive: 89.1 µM [inhibitor, single point].
For COc1ccccc1CNC(=O)CSC1=NCCS1, the Potency was “inactive”.
CCC(=O)Nc1c(OC(=O)CC)ccc2c(C)cc(=O)oc12 was tested, and the Potency was inconclusive: 70.8 µM [inhibitor, partial curve].
With COc1cc(/C=C2\C(=O)ON=C2c2ccccc2)cc(OC)c1OC the Potency was active: 17.8 µM.
For Cc1ccc(C2(C)NC(=O)N(CC(=O)Nc3ccc(Cl)c(S(=O)(=O)N4CCCCC4)c3)C2=O)cc1 (centres undefined), the Potency was “inactive”.
COc1ccc(CN2CCNC(=O)C2CC(=O)NCC2CCOCC2)c(C)c1C (centres undefined) was tested, and the Potency was inconclusive: 79.4 µM [inhibitor, single point].
For CC(N)(Cc1ccc(O)cc1)C(=O)O (centres undefined), the Potency was inconclusive: 37.7 µM [inhibitor, partial curve, poor fit].
In the case of CCOc1ccc(C(=S)NC2CCCCC2)cc1OC, the Potency is reported as inconclusive: 12.6 µM [inhibitor, full curve].
For CCN1CCN(C(c2cc3cccc(C)c3[nH]c2=O)c2nnnn2Cc2ccccc2)CC1 (centres undefined), the Potency was inconclusive: 50.1 µM [inhibitor, partial curve].
In the case of CN(Cc1ccccc1)c1nc(-c2ccc(F)cc2)cc(C(F)(F)F)n1, the Potency is reported as “inactive”.
O=C(NCCNC(=O)c1ccccn1)c1ccc(Cl)cc1 was tested, and the activity change, negative = inhibition was inactive: 23.6% [at 0.0914 µM].
Cn1c(N)c(C(=O)COC(=O)c2ccc([N+](=O)[O-])o2)c(=O)n(C)c1=O was tested, and the Potency was inconclusive: 50.1 µM [inhibitor, partial curve, poor fit].
In the case of Cc1nn(-c2ccccn2)c2c1-c1nc(N)sc1CC2, the Potency is reported as inconclusive: 14.1 µM [inhibitor, full curve, poor fit].
In the case of Cc1ccc(NC(=O)Nc2cccnc2)cc1NC(=O)Nc1cccnc1, the Potency is reported as “inactive”.
With Cc1ccc(CC2CC(=O)N(Cc3ccco3)C2=O)cc1 (centres undefined) the Potency was inconclusive: 50.1 µM [inhibitor, partial curve].
In the case of Cc1ccc(-c2cc3ncc(C(=O)c4cc([N+](=O)[O-])ccc4O)cn3n2)cc1, the Potency is reported as inconclusive: 89.1 µM [inhibitor, single point].
In the case of CCOC(=O)Cc1csc(NC(=O)c2csc3c2CCCC3)n1, the Potency is reported as “inactive”.
With CCCOc1ccc(N2C(=O)CC(NCC(=O)OCC)C2=O)cc1 (centres undefined) the Potency was inconclusive: 89.1 µM [inhibitor, partial curve, poor fit].
In the case of CC(=O)c1cccc(NC(=S)NC(=O)C(C)C)c1, the Potency is reported as inconclusive: 20 µM [inhibitor, partial curve].
Cc1ccc(O)c(NC(=O)CCC2CCCCC2)c1 was tested, and the Potency was “inactive”.
